# ± gives the uncertainty stated by the source. The list shows a part of the results. A small y stands for phosphotyrosine.
# Target: GRB2 (endogenous complexes from cell lysate), P62993
# Test: GRB2 complex binding differential signal (pY peptide minus Ala control peptide) (fluorescence intensity units); higher = stronger GRB2 complex binding
# Conditions: MCF7
# 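Also: phosphopeptide probes on the chip at 1–4 µM, lysate proteins bound in 20 mM Tris pH 7.0 buffer with 140 mM NaCl, 1% Triton X-100 and 5% glycerol.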
row,Binder,GRB2 complex binding differential signal
1,ySFAPD [TENS3_601/A1],350 ± 1100
2,yDNDAG [TENS3_780/A1],865 ± 240
3,yENFRR [TIAM1_Y384/A1],25400 ± 3900
4,yVMGGP [TNK1_277/A1],1590 ± 350
5,yLYLAI [TIE2_897/A1],-236 ± 1300
6,yGTSPG [BCAR3_266/A1],3040 ± 980
7,yVKKTM [TIE1_1007/A1],795 ± 280
8,yDNFSG [TENS1_339/A1],119 ± 280
9,yQVSGL [TENS1_1254/A1],1380 ± 350
10,yDYQPC [TENS1_796/A1],-312 ± 950
11,yATING [TENS1_1404/A1],1980 ± 620
12,yEKLPQ [TIE2_1048/A1],1680 ± 660
13,ySAFCA [TIAM1_Y1142/A1],413 ± 400
14,yAGIDC [TIE2_1113/A1],25.2 ± 230
15,yEEVAR [TPM1_162/A1],2130 ± 400
16,yENLSA [TENS3_333/A1],44500 ± 11000
17,yAKVRK [TENS3_354/A1],-5.4 ± 300

row,Binder,GRB2 complex binding differential signal
1,yENQSP [TENS1_903/A1],45800 ± 3400
2,yVVPVE [BLNK_178/A1],2920 ± 1200
3,ySLQHF [TENS1_1149/A1],-96.5 ± 340
4,yGGYST [TENS1_1323/A1],223 ± 250
5,yRPYFR [TGFB2_Y123/A1],189 ± 310
6,ySPRRG [TR150_118/A1],931 ± 220
7,yTAQEG [BLK_389/A1],767 ± 210
8,yNTSDP [TENS1_327/A1],1060 ± 1600
9,yEKFTY [TIE2_1108/A1],489 ± 380
10,ySTPED [TENS1_1326/A1],7750 ± 1900
11,yVNTTL [TIE2_1102/A1],45800 ± 5000
12,yAKVKK [TENS1_366/A1],247 ± 250
13,yRSNWQ [TR150_107/A1],474 ± 240
14,yEDWDP [TIAM1_Y1323/A1],-1.57 ± 350
15,yVLARP [TNK1_661/A1],2680 ± 1100
16,yVKTAL [TENS3_855/A1],1650 ± 1800

# Same assay, conditions: MCF10A
row,Binder,GRB2 complex binding differential signal
1,ySFAPD [TENS3_601/A1],567 ± 260
2,yDNDAG [TENS3_780/A1],1820 ± 320
3,yENFRR [TIAM1_Y384/A1],5040 ± 1600
4,yVMGGP [TNK1_277/A1],357 ± 610
5,yLYLAI [TIE2_897/A1],27.6 ± 160
6,yGTSPG [BCAR3_266/A1],2480 ± 710
7,yVKKTM [TIE1_1007/A1],161 ± 220
8,yDNFSG [TENS1_339/A1],158 ± 260
9,yQVSGL [TENS1_1254/A1],902 ± 310
10,yDYQPC [TENS1_796/A1],148 ± 160
11,yATING [TENS1_1404/A1],1830 ± 440
12,yEKLPQ [TIE2_1048/A1],3070 ± 650
13,ySAFCA [TIAM1_Y1142/A1],395 ± 370
14,yAGIDC [TIE2_1113/A1],-5.6 ± 310
15,yEEVAR [TPM1_162/A1],1470 ± 420
16,yENLSA [TENS3_333/A1],31300 ± 4600
17,yAKVRK [TENS3_354/A1],86.7 ± 170

row,Binder,GRB2 complex binding differential signal
1,yENQSP [TENS1_903/A1],46600 ± 7300
2,yVVPVE [BLNK_178/A1],4150 ± 840
3,ySLQHF [TENS1_1149/A1],45.6 ± 240
4,yGGYST [TENS1_1323/A1],-28.7 ± 380
5,yRPYFR [TGFB2_Y123/A1],-32.8 ± 210
6,ySPRRG [TR150_118/A1],233 ± 280
7,yTAQEG [BLK_389/A1],1090 ± 1000
8,yNTSDP [TENS1_327/A1],1850 ± 610
9,yEKFTY [TIE2_1108/A1],235 ± 730
10,ySTPED [TENS1_1326/A1],5050 ± 1500
11,yVNTTL [TIE2_1102/A1],30100 ± 6200
12,yAKVKK [TENS1_366/A1],112 ± 140
13,yRSNWQ [TR150_107/A1],180 ± 170
14,yEDWDP [TIAM1_Y1323/A1],186 ± 220
15,yVLARP [TNK1_661/A1],1210 ± 380
16,yVKTAL [TENS3_855/A1],693 ± 340

# Same assay, conditions: MDA-MB-231
row,Binder,GRB2 complex binding differential signal
1,ySFAPD [TENS3_601/A1],862 ± 220
2,yDNDAG [TENS3_780/A1],2730 ± 410
3,yENFRR [TIAM1_Y384/A1],10800 ± 2400
4,yVMGGP [TNK1_277/A1],970 ± 420
5,yLYLAI [TIE2_897/A1],347 ± 420
6,yGTSPG [BCAR3_266/A1],946 ± 460
7,yVKKTM [TIE1_1007/A1],692 ± 310
8,yDNFSG [TENS1_339/A1],1120 ± 620
9,yQVSGL [TENS1_1254/A1],814 ± 340
10,yDYQPC [TENS1_796/A1],201 ± 390
11,yATING [TENS1_1404/A1],1340 ± 1000
12,yEKLPQ [TIE2_1048/A1],665 ± 810
13,ySAFCA [TIAM1_Y1142/A1],1150 ± 800
14,yAGIDC [TIE2_1113/A1],202 ± 690
15,yEEVAR [TPM1_162/A1],967 ± 520
16,yENLSA [TENS3_333/A1],28900 ± 5200
17,yAKVRK [TENS3_354/A1],462 ± 220

row,Binder,GRB2 complex binding differential signal
1,yENQSP [TENS1_903/A1],7470 ± 1600
2,yVVPVE [BLNK_178/A1],1390 ± 380
3,ySLQHF [TENS1_1149/A1],566 ± 270
4,yGGYST [TENS1_1323/A1],886 ± 1000
5,yRPYFR [TGFB2_Y123/A1],231 ± 280
6,ySPRRG [TR150_118/A1],499 ± 300
7,yTAQEG [BLK_389/A1],831 ± 380
8,yNTSDP [TENS1_327/A1],1200 ± 350
9,yEKFTY [TIE2_1108/A1],872 ± 310
10,ySTPED [TENS1_1326/A1],3460 ± 720
11,yVNTTL [TIE2_1102/A1],30300 ± 2500
12,yAKVKK [TENS1_366/A1],707 ± 390
13,yRSNWQ [TR150_107/A1],107 ± 320
14,yEDWDP [TIAM1_Y1323/A1],755 ± 350
15,yVLARP [TNK1_661/A1],1420 ± 430
16,yVKTAL [TENS3_855/A1],529 ± 300

# Same assay, conditions: T47D
row,Binder,GRB2 complex binding differential signal
1,ySFAPD [TENS3_601/A1],508 ± 880
2,yDNDAG [TENS3_780/A1],8260 ± 2200
3,yENFRR [TIAM1_Y384/A1],27800 ± 6000
4,yVMGGP [TNK1_277/A1],1770 ± 1200
5,yLYLAI [TIE2_897/A1],502 ± 1200
6,yGTSPG [BCAR3_266/A1],983 ± 1200
7,yVKKTM [TIE1_1007/A1],1160 ± 1200
8,yDNFSG [TENS1_339/A1],2810 ± 1400
9,yQVSGL [TENS1_1254/A1],848 ± 1200
10,yATING [TENS1_1404/A1],1610 ± 1000
11,yEKLPQ [TIE2_1048/A1],1890 ± 1700
12,ySAFCA [TIAM1_Y1142/A1],3650 ± 1100
13,yAGIDC [TIE2_1113/A1],892 ± 1400
14,yEEVAR [TPM1_162/A1],2030 ± 1200
15,yENLSA [TENS3_333/A1],28700 ± 11000
16,yENQSP [TENS1_903/A1],13000 ± 4200
17,yVVPVE [BLNK_178/A1],1220 ± 1300
18,ySLQHF [TENS1_1149/A1],741 ± 1000
19,yGGYST [TENS1_1323/A1],1940 ± 1100
20,yRPYFR [TGFB2_Y123/A1],55.9 ± 1200
21,ySPRRG [TR150_118/A1],529 ± 1200
22,yTAQEG [BLK_389/A1],465 ± 1200
23,yNTSDP [TENS1_327/A1],1240 ± 880
24,yEKFTY [TIE2_1108/A1],2320 ± 1500
25,ySTPED [TENS1_1326/A1],1940 ± 1100
26,yVNTTL [TIE2_1102/A1],49200 ± 10000
27,yRSNWQ [TR150_107/A1],639 ± 1200
28,yEDWDP [TIAM1_Y1323/A1],596 ± 1200
29,yVLARP [TNK1_661/A1],2260 ± 2000
30,yVKTAL [TENS3_855/A1],1800 ± 1200

# Source: the supplement of paper PMC3694890
